Here are results for 172 sequences from paper PMC10668032.

This is one part of the list. At the low end of the ranking the order means little.

The experiment has as its target SIX1 homeodomain (reference allele) (UniProt Q15475). The experiment can be described thus: universal protein binding microarray. The conditions noted are these: Universal all-10-mer PBM (8x60K, AMADID 030236), 300 nM GST-tagged protein, Alexa Fluor 488 anti-GST; buffer, salt, pH and temperature not stated; high values mean tight binding; most listed sequences are background and not binding sites; double strand, one strand shown.
Turning to CACACTAG, the binding signal was -0.13 E-score.

With GCTCAAGC, the binding signal was -0.174 E-score.

Take GCCGCGAA: the binding signal is -0.132 E-score.

In the case of ATGGCATC, the binding signal amounted to 0.155 E-score.

Turning to AAGCCCAG, the binding signal is -0.2 E-score.

With AAATTTGG, the binding signal is -0.27 E-score.

Consider CAAAGGTA, for which the binding signal was 0.0553 E-score.

Regarding AAACAAAT, the binding signal is -0.203 E-score.

ACAGGACA: the binding signal is -0.181 E-score.

Turning to AGTTAGCC, the binding signal is -0.171 E-score.

Consider ATGCTCGC, for which the binding signal was -0.02 E-score.

Turning to GATCGTCA, the binding signal stood at 0.145 E-score.

AGGCTATA: the binding signal came out at 0.132 E-score.

GCCGAATA: the binding signal turned out to be 0.139 E-score.

TGGTCGAA: the binding signal was -0.209 E-score.

For GATTATCC, the binding signal was determined as 0.329 E-score.

As for GCGGGTTA, the binding signal worked out at 0.114 E-score.

Turning to ACAGGGCA, the binding signal is -0.11 E-score.

GATGACTA: the binding signal is -1.5e-05 E-score.

CGTGTAGA: the binding signal turned out to be 0.17 E-score.

Take AATGACGC: the binding signal is 0.0723 E-score.

In the case of ACCACGGT, the binding signal is -0.139 E-score.

As for CCCTGGAG, the binding signal was -0.29 E-score.

Consider GAGTCAGC, for which the binding signal was -0.17 E-score.

CCTTGTCG: the binding signal is -0.117 E-score.

Turning to AATCAAGC, the binding signal was -0.0872 E-score.

For the sequence GTCGGTAA, the binding signal was -0.144 E-score.

With CCGCTTTA, the binding signal was 0.0759 E-score.

Take TGTTGGAA: the binding signal was -0.0784 E-score.

Take AAGGCCAG: the binding signal is -0.108 E-score.

For the sequence CCGAACAG, the binding signal was -0.188 E-score.

In the case of ATGGTCTC, the binding signal came out at 0.153 E-score.

On to CGCCGCAC, for which the binding signal was -0.187 E-score.

Take TTGCGCAA: the binding signal was -0.253 E-score.

As to ACTGCTGC, the binding signal was -0.153 E-score.

With CATGGTTA, the binding signal is -0.0438 E-score.

For TCATACGA, the binding signal turned out to be 0.0819 E-score.

Consider ACGTAGCA, for which the binding signal is -0.0792 E-score.

For ACTTATCC, the binding signal is 0.166 E-score.

Take AGTAAGAC: the binding signal is -0.0377 E-score.

As for CCAGGATC, the binding signal amounted to 0.355 E-score.

Take AGGTGGCC: the binding signal is -0.144 E-score.

Regarding AGATTACT, the binding signal came out at 0.0734 E-score.

As to ACACATTG, the binding signal was -0.127 E-score.

Turning to GATCGCCA, the binding signal is 0.211 E-score.

As to ACCTGCCT, the binding signal is -0.0294 E-score.

Take AACTGGCG: the binding signal is -0.15 E-score.

As for ATTCGCAA, the binding signal is -0.111 E-score.

For the sequence AGGCTCCG, the binding signal was -0.0732 E-score.

In the case of CTCTAAGC, the binding signal was -0.0711 E-score.

Turning to CATTCGCG, the binding signal was determined as 0.0741 E-score.

Turning to GATAACGC, the binding signal was -0.0465 E-score.

On to ACTCCGTC, for which the binding signal was -0.063 E-score.

As for CTAATTAA, the binding signal is -0.12 E-score.

Take AAAGTAGG: the binding signal is -0.151 E-score.

In the case of CATACCAC, the binding signal turned out to be 0.0738 E-score.

For GCCAATCA, the binding signal was -0.137 E-score.

Regarding AAAGGGAC, the binding signal was -0.212 E-score.

On to ACGTACGC, for which the binding signal was -0.25 E-score.

Regarding AATGGAAA, the binding signal is -0.00512 E-score.

CATGCGCG: the binding signal is -0.0803 E-score.

As to AAGGGTGG, the binding signal is -0.121 E-score.

Turning to CCAGTCAC, the binding signal is -0.0359 E-score.

In the case of ACTAACCC, the binding signal is -0.104 E-score.

Regarding ACTGTCTG, the binding signal is -0.101 E-score.

As for CCAGGCGG, the binding signal is -0.0885 E-score.

Regarding AATAGCGG, the binding signal is -0.0273 E-score.

As for CTGTTACA, the binding signal was -0.196 E-score.

Consider AAGGGCCT, for which the binding signal was -0.171 E-score.

Turning to ATGATCAA, the binding signal came out at 0.11 E-score.

Take ATCTACTA: the binding signal came out at 0.276 E-score.

Turning to AGTCCAGG, the binding signal is -0.0505 E-score.

As to ACTCACCT, the binding signal was -0.0548 E-score.

Consider TAGTCCCA, for which the binding signal is -0.151 E-score.

For CTCGGATC, the binding signal was found to be 0.396 E-score.

Consider AAATGTGC, for which the binding signal is -0.145 E-score.

For AAGCGAGA, the binding signal is 0.0121 E-score.

In the case of ATGTTTAG, the binding signal is -0.157 E-score.

For the sequence TAGTTATA, the binding signal came out at 0.124 E-score.

With ATCGCTAA, the binding signal is 0.0985 E-score.

Regarding ACCGTACT, the binding signal was 0.0726 E-score.

TCCCCTCA: the binding signal turned out to be 0.175 E-score.

As to ATACTGGC, the binding signal amounted to 0.228 E-score.

In the case of GACCTCGA, the binding signal is -0.0204 E-score.

AACTAAAT: the binding signal came out at 0.0532 E-score.

Turning to ATGGAGCA, the binding signal is -0.161 E-score.

Take CGGCTCGA: the binding signal worked out at 0.15 E-score.

For ATAGACTG, the binding signal is -0.0652 E-score.

In the case of CCGAATAA, the binding signal was -0.00363 E-score.

As to AAATAACA, the binding signal worked out at 0.0073 E-score.

Regarding CCTCAGTC, the binding signal is -0.247 E-score.

AGACGCTC: the binding signal was -0.15 E-score.

Turning to CACCTAGA, the binding signal was found to be 0.122 E-score.

Turning to ACGATTCC, the binding signal was -0.0224 E-score.

AAGCGCTA: the binding signal is -0.11 E-score.

Consider AAACGGCA, for which the binding signal was -0.0389 E-score.

CGTGTTGC: the binding signal is -0.0368 E-score.

For CCCGAGTA, the binding signal was found to be 0.279 E-score.

Turning to ACCGCGTC, the binding signal was -0.194 E-score.

GAGGTCCC: the binding signal was -0.153 E-score.

For the sequence GGCCTTAC, the binding signal was -0.194 E-score.

On to CCTCAGCG, for which the binding signal was found to be 0.046 E-score.

As to GCGCCACA, the binding signal is -0.119 E-score.

Turning to CTTTAGGA, the binding signal came out at 0.0351 E-score.

As for ATGGCAAC, the binding signal came to 0.0243 E-score.

As for GGCCCCCC, the binding signal is -0.163 E-score.

Regarding ACTTCGAA, the binding signal is -0.332 E-score.

Consider ACACGACT, for which the binding signal is 0.162 E-score.

Regarding CATAGATG, the binding signal was -0.146 E-score.

For the sequence AATCGGGA, the binding signal was -0.079 E-score.

For GTTTACAA, the binding signal was -0.183 E-score.

Consider ATCGTGGG, for which the binding signal was 0.163 E-score.

For the sequence ACAGTGAA, the binding signal is -0.155 E-score.

Take AAACACAG: the binding signal was -0.0585 E-score.

On to GAACCCGA, for which the binding signal was 0.19 E-score.

In the case of ATAGACAG, the binding signal was -0.0101 E-score.

On to GACATCTC, for which the binding signal amounted to 0.0839 E-score.

CAGGTTAC: the binding signal is -0.135 E-score.

For the sequence GTCCTACA, the binding signal was -0.025 E-score.

As to AAGGTACA, the binding signal is -0.0469 E-score.

For GTCCGATA, the binding signal came out at 0.331 E-score.

For GCGCTAGA, the binding signal is -0.0178 E-score.

For ATTGCACA, the binding signal is -0.0444 E-score.

Consider ACCATCAA, for which the binding signal is -0.152 E-score.

As to CACGCTAA, the binding signal is -0.0372 E-score.

Turning to GTCCCCTA, the binding signal amounted to 0.0696 E-score.

In the case of AGGACGTG, the binding signal was -0.0876 E-score.

For the sequence ATGGTATG, the binding signal is 0.0841 E-score.

Take CTTCCACA: the binding signal was -0.311 E-score.

Turning to CGGGGGCA, the binding signal was -0.229 E-score.

Turning to TCTACGCA, the binding signal was -0.04 E-score.

As to GGAGATCC, the binding signal came out at 0.374 E-score.

Turning to CTAATAAA, the binding signal was -0.04 E-score.

Regarding GAGCATAC, the binding signal is -0.0182 E-score.

As to AGAAGCGG, the binding signal was -0.0186 E-score.

AATATGAG: the binding signal stood at 0.0352 E-score.

AGATACTG: the binding signal turned out to be 0.342 E-score.

With AACGCTAC, the binding signal is -0.19 E-score.

Consider AAAGGAAT, for which the binding signal is -0.172 E-score.

On to AGGTAGCC, for which the binding signal was -0.131 E-score.

On to CTGTGGAC, for which the binding signal is 0.0181 E-score.

Regarding GCCTACAC, the binding signal was found to be 0.042 E-score.

As to CAGACGCA, the binding signal stood at 0.00388 E-score.

On to GGGTAAAA, for which the binding signal was -0.0745 E-score.

Regarding AGTAGTGG, the binding signal was -0.00031 E-score.

As for ACCTGTAT, the binding signal came out at 0.272 E-score.

As for AGTAGCGA, the binding signal amounted to 0.1 E-score.

As to CTGCTGAC, the binding signal was -0.0553 E-score.

Regarding AATACCGC, the binding signal was determined as 0.386 E-score.

As to CACGACAC, the binding signal was found to be 0.216 E-score.

As for ATATTAGA, the binding signal stood at 0.211 E-score.

Consider AAAGTTGG, for which the binding signal is -0.271 E-score.

Take CTGATGTC: the binding signal is -0.0955 E-score.

Consider GAAATCGC, for which the binding signal is -0.166 E-score.

In the case of CTGCCGTC, the binding signal amounted to 0.124 E-score.

Turning to CGCCGTGA, the binding signal is -0.0546 E-score.

Regarding CTTGAAGA, the binding signal was -0.316 E-score.

Regarding CGTCAAAA, the binding signal is -0.263 E-score.

For the sequence ACAAGCGG, the binding signal is -0.152 E-score.

CAAAAAAA: the binding signal was -0.169 E-score.

Regarding GATGGTCA, the binding signal is -0.157 E-score.

Turning to CCACGCGC, the binding signal is -0.232 E-score.

ATAAGAGC: the binding signal is 0.0501 E-score.

On to AACCTACA, for which the binding signal is -0.0886 E-score.

For CACGATTA, the binding signal turned out to be 0.0546 E-score.

Turning to CTCCGTAC, the binding signal is -0.0967 E-score.

As to GAACCGGC, the binding signal is -0.142 E-score.

For the sequence ACTAAGCT, the binding signal was -0.0652 E-score.

Take AACACTAC: the binding signal is -0.119 E-score.

As to CTAGCTCC, the binding signal is -0.122 E-score.

For ACTAGCTC, the binding signal was -0.0814 E-score.

Regarding TGTTGAAA, the binding signal is -0.0615 E-score.
